Source: PubChem BioAssay AID686979 (National Center for Advancing Translational Sciences (NCATS), 2013)
The campaign covered roughly 420,000 compounds. About 50,000 (12%) were called active. Inconclusive results, whose numbers are uncertain, are shown with a selection of clear calls. Calls come from the whole dose curve; as a rule, active = well fitted inhibition curve with a large enough effect; inconclusive = small, poorly fitted or top-dose-only effect; inactive = flat fitted curve, though single readings scatter. No potency is given beside an inconclusive call; the fits are too rough.
% is set by controls: 0 for no effect and ±100 for the full control effect; potency is the fitted concentration of half-maximal effect; tags give direction and shape of the fitted curve.

Test: qHTS for Inhibitors of human tyrosyl-DNA phosphodiesterase 1 (TDP1): qHTS in cells in presence of CPT; note: nearly all actives have a fitted effect of over 55% in size
Conditions: chicken DT40 Tdp1-/-;hTDP1 cells + 20 nM CPT, ATP luminescence, 48 h; activity change, negative = growth inhibition: at 46.2 µM (top of the series)
Outline: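 Chicken DT40 Tdp1-/- cells stably complemented with human TDP1 were seeded at 400 cells/well in medium containing 20 nM camptothecin, exposed to pin-transferred compounds, and grown at 37 °C for at least 48 hr. Viability was read as ATP luminescence.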
For `O=C(CSc1c2c(nc3cc(Cl)ccc13)CCCC2)NCc1ccccc1Cl`, the Potency was active: 18.4 µM.
In the case of `Cc1cc(C2=NNC(=Nc3ccccc3)SC2)c(C)n1C`, the Potency is reported as inconclusive [inhibitor, single point].
For `CN(C)CCCN=Cc1c(-c2ccccc2)[nH]n(-c2nc3ccccc3s2)c1=O`, the Potency was inconclusive [inhibitor, partial curve, poor fit].
In the case of `COc1c2ccoc2c(OC[C@@H](OC(C)=O)C(C)(C)O)c2oc(=O)ccc12`, the Potency is reported as inconclusive [inhibitor, single point].
In the case of `CN(/C=C1/C(=O)CNC1=O)CCO`, the Potency is reported as inconclusive [inhibitor, single point].
In the case of `COc1cc(/C=C/C(=O)OCC(=O)c2ccc(OC(F)F)cc2)ccc1O`, the Potency is reported as inconclusive [inhibitor, single point].
In the case of `CCc1ccc(Oc2c(C(F)(F)F)oc3c(CN4CCCC(C)C4)c(O)ccc3c2=O)cc1` (configuration not stated), the “activity change, negative = growth inhibition” value is reported as inactive: 2.62%.
For `CN(C)S(=O)(=O)c1cccc(NC(=S)Nc2ccc3cn[nH]c3c2)c1`, the “activity change, negative = growth inhibition” value was inactive: -27%.
With `Cc1ccc(Cc2c(C3CCCCC3)nc3ccc(Cl)cn23)cc1` the Potency was inconclusive [inhibitor, single point].
In the case of `CCCCOc1ccccc1NC(=O)c1scc2c1OCCO2`, the Potency is reported as inconclusive [inhibitor, partial curve, poor fit].
For `COc1ccc(NC(=O)c2ccc(S(=O)(=O)N(C)c3ccccc3)cc2)cn1`, the Potency was active: 14.6 µM.
For `CCc1ccc(NC(=O)c2nn(-c3ccc(OC)cc3)c(=O)c3c2c2ccccc2n3C)cc1`, the “activity change, negative = growth inhibition” value was inactive: 4.15%.
For `COc1ccc(N2CCN(c3csc4ccccc4c3=O)CC2)cc1`, the Potency was inconclusive [inhibitor, single point].
For `CCCCOc1ccc(Cn2c(=O)sc3ccccc32)cc1`, the Potency was inconclusive [inhibitor, single point].
For `CCOC(=O)c1c(NC(=O)C(=O)N/N=C/c2ccc(O)c(OC)c2)sc2c1CCCCC2`, the Potency was inconclusive [inhibitor, single point].
For `COC(=O)c1ccc(/C=N/NC(=S)NC(C)C)cc1`, the Potency was inconclusive [inhibitor, single point].
With `Cc1nn(-c2ccccc2)c(C)c1/C=C/C(=O)OCC(=O)N(C)C1CCS(=O)(=O)C1` (configuration not stated) the “activity change, negative = growth inhibition” value was inactive: 4.36%.
With `O=C(c1cccs1)N(Cc1cc2ccccc2[nH]c1=O)c1ccccc1` the Potency was active: 13 µM.
With `COc1ccc(/C=N/Nc2cc(C)nc3ccc(Br)cc23)cc1` the Potency was inconclusive [inhibitor, single point].
In the case of `O=C1c2ccccc2-c2onc3c(NCCO)cc(NC4CCCCC4)c1c23`, the Potency is reported as active: 18.4 µM.
With `COc1ccc(C(CNC(=O)COc2cc(C)cc(C)c2)N2CCOCC2)cc1` (configuration not stated) the Potency was inconclusive [inhibitor, single point].
With `Fc1ccc(CNC(=S)NCc2ccc(F)cc2)cc1` the “activity change, negative = growth inhibition” value was inactive: 13.1%.
With `Cc1c(C(=O)Nc2ccc(F)cc2F)sc2nc3n(c(=O)c12)N=C(c1ccccc1)CS3` the Potency was active: 14.6 µM.
In the case of `CC(Sc1oc(-c2cccs2)nc1S(=O)(=O)c1ccccc1)c1ccccc1` (configuration not stated), the Potency is reported as inconclusive [inhibitor, single point].
For `CC(C)(C)c1ccc(S(=O)(=O)N2CCC(O)(c3ccc(Cl)cc3)CC2)cc1`, the Potency was inconclusive [inhibitor, single point].
In the case of `Cc1occc1C(=O)n1nnc2ccccc21`, the Potency is reported as inconclusive [inhibitor, single point].
With `COC(=O)Cn1c(=NC(=O)c2ccc(Cl)s2)sc2cc(C)ccc21` the Potency was inconclusive [inhibitor, partial curve].
In the case of `Cc1sc2nc(CSCC(=O)Nc3ccc(OC(F)F)cc3)[nH]c(=O)c2c1C`, the “activity change, negative = growth inhibition” value is reported as inactive: -16.4%.
For `O=C1CC[C@@H](O)CCN1CC[C@H](Sc1ccccc1)c1ccccc1`, the Potency was inconclusive [inhibitor, single point].
With `COc1cc2c(=O)n(C)c3ccccc3c2cc1OC` the Potency was active: 13 µM.
In the case of `OCCCn1c(C2CCCN2c2nc(-c3ccc(Cl)cc3)cs2)nc2cc(C(F)(F)F)ccc21` (configuration not stated), the Potency is reported as inconclusive [inhibitor, single point].
With `CCN(CC)S(=O)(=O)c1ccc2oc(SCC(=O)NCc3ccccc3)nc2c1` the Potency was inconclusive [inhibitor, partial curve, poor fit].
In the case of `COc1cccc(N2C(=O)C(c3ccccc3)=C(c3nc4ccccc4s3)C2NC(C)=O)c1` (configuration not stated), the Potency is reported as inconclusive [inhibitor, single point].
With `COc1ccc(CC(=O)Oc2ccccc2C)cc1` the “activity change, negative = growth inhibition” value was inactive: 17.8%.
With `Cc1cccc(C)c1NC(=O)C1(C)CN(S(C)(=O)=O)CC(=O)N1CCc1ccccc1F` (configuration not stated) the “activity change, negative = growth inhibition” value was inactive: 8.24%.
For `Cc1ccc(OCCn2cc(C=O)c3ccccc32)cc1`, the Potency was inconclusive [inhibitor, single point].
With `CCCCCCc1cc2cc(C(=O)NC)c(=N)oc2cc1O` the Potency was inconclusive [inhibitor, single point].
With `CCCCC(=O)NC(=O)NC(c1ccccc1)c1ccccc1` the Potency was inconclusive [inhibitor, single point].
In the case of `CCCCc1nnc(NC(=O)CCS(=O)(=O)c2ccc(C)cc2)s1`, the Potency is reported as active: 13 µM.
For `COc1ccc(CNc2cc(-c3ccccc3C)ncn2)c(OC)c1`, the Potency was inconclusive [inhibitor, partial curve, poor fit].
For `COc1ccc(CNCC(O)(c2ccc(F)cc2)c2ccc(F)cc2)cc1OC`, the Potency was inconclusive [inhibitor, single point].
With `COc1ccc(CC(=O)Nc2cccc(/C(C)=N/NC(=O)C3(C)CC3(Br)Br)c2)cc1` (configuration not stated) the Potency was active: 16.4 µM.
In the case of `COC(=O)[C@@]12C[C@@H](CC(=O)NCc3cccs3)C(=O)N(Cc3cccc4ccccc34)C1=CCC(C)(C)C2`, the Potency is reported as inconclusive [inhibitor, single point].
With `O=C(Nc1cccc(NC(=O)c2ccccc2Cl)c1)c1cccc(Br)c1` the Potency was inconclusive [inhibitor, partial curve].
With `Cc1ccccc1NC(=O)CSc1ccc2nnc(-c3ccccn3)n2n1` the “activity change, negative = growth inhibition” value was inactive: -15.4%.
In the case of `CCc1nc(SCC(=O)Nc2cc(OC)ccc2OC)c2c(C)c(C)sc2n1`, the Potency is reported as active: 18.4 µM.
With `NC(Cc1ccc(C(F)(F)F)cc1)c1csc(Nc2nccc(C(F)(F)F)n2)n1` (configuration not stated) the Potency was inconclusive [inhibitor, single point].
In the case of `NC(=O)NC(CC(=O)OCC(=O)NC(=O)NCc1ccco1)c1ccc(Cl)cc1` (configuration not stated), the “activity change, negative = growth inhibition” value is reported as inactive: 5.73%.
In the case of `COc1cc(C)c(S(=O)(=O)N2CCOCC2)cc1C(C)C`, the Potency is reported as inconclusive [inhibitor, single point].
For `Cc1cc(OC(C)C(=O)NCC2CCCO2)cc(C)c1Cl` (configuration not stated), the “activity change, negative = growth inhibition” value was inactive: -24.6%.
For `CCCNC(=O)c1ccc(Cn2c(SCC(N)=O)nc3ccccc3c2=O)cc1`, the “activity change, negative = growth inhibition” value was inactive: -1.4%.
With `COc1ccccc1C(CNC(=O)C(CCSC)NS(=O)(=O)c1ccccc1F)N1CCCC1` (configuration not stated) the “activity change, negative = growth inhibition” value was inactive: -19.4%.
For `CN1C(=O)/C(=C/c2ccccc2OCc2ccc(C(=O)O)cc2)NC1=S`, the activity change, negative = growth inhibition was inconclusive: -30% [inhibitor].
In the case of `Cc1cccc(C)c1NC(=O)/C(C#N)=C/c1ccsc1`, the Potency is reported as inconclusive [inhibitor, single point].
For `CN(CC(=O)Nc1c(Cl)cccc1Cl)C(=O)Cc1ccc2c(c1)CCC2`, the Potency was inconclusive [inhibitor, partial curve, poor fit].
In the case of `Clc1ccc(-c2c[n+](Cc3ccc(Br)cc3)c3n2CCCCC3)cc1`, the Potency is reported as active: 2.59 µM.
In the case of `CCCCCCCC(=O)NNC(=O)c1c(O)c2ccccc2n(CC)c1=O`, the Potency is reported as inconclusive [inhibitor, single point].
For `COc1cccc(CNC(=O)Cn2ncn3c(cc4ccccc43)c2=O)c1`, the Potency was inconclusive [inhibitor, single point].
For `Cc1cc(OCC(=O)N2CCN(c3ncccn3)CC2)ccc1Cl`, the “activity change, negative = growth inhibition” value was inactive: -26.2%.
In the case of `Cc1cc(NC(=O)CCC(=O)N(Cc2ccco2)C(C(=O)NC2CCCC2)c2ccc(F)cc2)no1` (configuration not stated), the “activity change, negative = growth inhibition” value is reported as inactive: -19.1%.
With `COc1ccc(/C=N/NC(=O)c2nn(-c3ccc(Cl)cc3)c(=O)c3c(N)scc23)cc1` the Potency was active: 5.8 µM.
With `COc1cc(CC(=O)NC(c2ccccc2)c2ccccc2)cc(OC)c1OC` the Potency was active: 14.6 µM.
In the case of `O=C(Cn1cnc2c(nnn2Cc2ccc(Cl)cc2)c1=O)NCc1ccco1`, the Potency is reported as inconclusive [inhibitor, single point].
With `CC(Sc1nnc(COc2ccc(Cl)cc2)n1Cc1ccco1)C(=O)N1CCNC1=O` (configuration not stated) the Potency was inconclusive [inhibitor, single point].
In the case of `CCOc1ccccc1C(=O)N1CCc2cc(OC)c(OC)cc2C1COc1ccc(OC)cc1` (configuration not stated), the Potency is reported as inconclusive [inhibitor, single point].
For `O=C1c2oc3ccccc3c(=O)c2C(c2cccc(Br)c2)N1Cc1ccco1` (configuration not stated), the activity change, negative = growth inhibition was inconclusive: -32.1% [inhibitor].
For `Cc1ccc(-c2nc3cccc(C)n3c2Nc2ccc3c(c2)OCO3)o1`, the Potency was active: 23.1 µM.
For `O=c1[nH]cnc2c1ncn2[C@@H]1O[C@H](COS(=O)(=O)O)[C@@H](O)[C@H]1O`, the Potency was active: 3.66 µM.
In the case of `O=c1c2cc([N+](=O)[O-])ccc2sn1-c1ccccc1`, the Potency is reported as active: 4.61 µM.
With `COc1cc(/C=N/NC(=S)NC(C)C)ccc1OCC(=O)Nc1c(C)cc(C)cc1C` the Potency was active: 7.31 µM.
In the case of `CCOC(=O)c1cccc(NC(=O)CSc2nnc(COc3ccccc3)n2CC)c1`, the “activity change, negative = growth inhibition” value is reported as inactive: -25%.
In the case of `CCCS(=O)(=O)NC(=O)C1(C)CCN(C(=O)c2sccc2C)C1` (configuration not stated), the “activity change, negative = growth inhibition” value is reported as inactive: 2.03%.
